Measured values from a compilation of properties of binary mixtures (doi:10.1007/s10973-018-7427-0).
The densities may have been worked out from excess volumes.

Assay: xn = mol fraction of the nth substance listed
Conditions: 100 kPa

C=CN1CCCC1=O + CCCC[n+]1ccn(C)c1.F[P-](F)(F)(F)(F)F
mass density [kg/m3]
Conditions	x2 = 0	x2 = 0.1011	x2 = 0.2059	x2 = 0.3019	x2 = 0.3937	x2 = 0.5023	x2 = 0.584	x2 = 0.6946	x2 = 0.7788	x2 = 0.8707
298.15 K	1039.4	–	1156.1	1197	1230.3	1264	1286	1311.9	1329.3	1346.3
303.15 K	–	1098.2	1151.9	–	1226.2	1259.9	1281.8	1307.8	1325.1	1342.1
308.15 K	1030.6	1094	–	–	1222	1255.7	1277.6	–	1320.9	1337.9
313.15 K	1026.1	1089.7	1143.5	–	1217.9	–	1273.5	–	1316.7	1333.6
318.15 K	1021.7	–	–	1180.3	1213.7	1247.4	1269.3	1295.2	1312.5	1329.4
323.15 K	–	1081.1	–	–	1209.6	1243.3	1265.2	1291	1308.3	1325.2

CCCC[n+]1ccn(C)c1.F[P-](F)(F)(F)(F)F + C=CN1CCCC1=O
x1 = 1
Conditions	mass density [kg/m3]
298.15 K	1367.2
303.15 K	1363
308.15 K	1358.7
313.15 K	1354.5
318.15 K	1350.2
323.15 K	1346
